Measurements reported in ChEMBL document CHEMBL4888484, “Replenishing the malaria drug discovery pipeline: Screening and hit evaluation of the MMV Hit Generation Library 1 (HGL1) against asexual blood stage Plasmodium falciparum ,using a nano luciferase reporter read-out” (2022).
Out of some 150,000 compounds screened, about 540 (0.36%) showed an effect of 50% or more. This is one part of the list.

Each compound was assayed on Plasmodium falciparum (assay: Primary screen in NF54 nanoGlo assay, in single point, at 2uM, 72h; a lower Z score goes with more inhibition). Settings: timepoint 72 hour.
Format: functional, Erythrocyte
`Cc1nc(C)c(CNC(=O)[C@H]2CCOC2)o1` was tested, and the “% Inhibition” value was 23% and the Z score was -2.62.
For `Cn1c(N2CCC[C@H]2C2CCCC2)c(C#N)c(=O)n(C)c1=O`, the “% Inhibition” value was -3% and the Z score was 0.42.
In the case of `Cc1cccc(-c2ccc(C(=O)NCCN3CCOCC3)n2C)c1`, the “% Inhibition” value is reported as -7% and the Z score is reported as 1.19.
In the case of `Cc1nn(C)cc1-c1cc(-c2cn(C)nc2C)[nH]n1`, the “% Inhibition” value is reported as -3% and the Z score is reported as 0.41.
For `CC(C)NC(=O)CN1C[C@H](O)C[C@H]1c1n[nH]c(-c2ccccc2)n1`, the “% Inhibition” value was 0% and the Z score was -0.04.
With `O=C(Nc1cccc(-c2nnco2)c1)c1cccc(Cl)c1` the “% Inhibition” value was -18% and the Z score was 2.95.
With `Cc1nc2ccccc2n1CCNc1ncc(C#N)cc1Cl` the “% Inhibition” value was -12% and the Z score was 1.4.
With `CCC(C)N(CC(=O)N1CCc2sccc2C1c1ccc(C(C)(C)C)cc1)C(=O)c1ccc(-c2ccccc2)cc1` (centres undefined) the “% Inhibition” value was -7% and the Z score was 0.74.
With `CN(C)C(=O)c1cccc(Br)c1Cl` the “% Inhibition” value was -18% and the Z score was 2.57.
For `CCc1ccc(CN2CCC(n3nccc3NC(C)=O)CC2)o1`, the “% Inhibition” value was -20% and the Z score was 1.75.
In the case of `COc1cccc(C(=O)NCC(=O)N2CCCN(Cc3noc(C)n3)CC2)c1`, the “% Inhibition” value is reported as -10% and the Z score is reported as 1.66.
For `O=C(Nc1ccc2c(c1)OCO2)N1CCC(c2nnc(-c3ccco3)o2)CC1`, the “% Inhibition” value was -9% and the Z score was 1.62.
`Cc1nnc(CN2CC[C@](C)(O)[C@H](C)C2)n1C` was tested, and the “% Inhibition” value was -5% and the Z score was 0.45.
For `C=CCN(Cc1ccc(F)cc1)Cc1cc(C)nn1C`, the “% Inhibition” value was -3% and the Z score was 0.42.
In the case of `CC(=O)N1CC(C(=O)Nc2cccnc2)C1`, the “% Inhibition” value is reported as -2% and the Z score is reported as 0.23.
With `O=C(O)c1cccc(C(=O)N2CCC(c3ccsc3)CC2)c1` the “% Inhibition” value was -12% and the Z score was 1.53.
`O=C(CNS(=O)(=O)c1ccccc1)NCc1ccco1` was tested, and the “% Inhibition” value was 1% and the Z score was -0.13.
For `N#Cc1ccc(N2CCC[C@H]2C(=O)NC2CC2)c(Br)c1`, the “% Inhibition” value was -19% and the Z score was 2.96.
For `C[C@H]1CC=CC[C@@H]1NC(=O)c1cnn2ccc(N)cc12`, the “% Inhibition” value was 0% and the Z score was -0.01.
With `Oc1ccc(-c2nc(-c3ccc4c(c3)OCCCO4)cs2)cc1` the “% Inhibition” value was -9% and the Z score was 1.35.
With `N#CCC(=O)NC1CC1(F)c1ccccc1` (centres undefined) the “% Inhibition” value was -9% and the Z score was 0.86.
For `CCC1CCCCC1N(C)c1ccc(C#N)cn1` (centres undefined), the “% Inhibition” value was 2% and the Z score was -0.29.
With `CC(C)(C)[C@@H]1CNC(=O)CN1S(=O)(=O)c1cnc2ccccc2c1` the “% Inhibition” value was -14% and the Z score was 1.64.
In the case of `CCOc1ccc(-c2c[nH]c(C(=O)N3CCCCC3)c2)cc1`, the “% Inhibition” value is reported as -10% and the Z score is reported as 1.47.
With `COc1ccc(S(=O)(=O)N2CCOCC2)cc1NC(=O)CCCOc1ccccc1` the “% Inhibition” value was -6% and the Z score was 0.93.
`CCc1ccc(S(=O)(=O)n2c(=O)n(S(=O)(=O)c3ccc(CC)cc3)c3ccccc32)cc1` was tested, and the “% Inhibition” value was -8% and the Z score was 1.09.
In the case of `O=C(CCCc1ccccc1)Nc1nccs1`, the “% Inhibition” value is reported as -17% and the Z score is reported as 1.99.
`COc1ccc(CN2CCC3(CC2)CCN(C(=O)C(C)C)CC3)cc1C` was tested, and the “% Inhibition” value was 2% and the Z score was -0.3.
In the case of `Cn1ncc(C(=O)N2CCN(c3ccccc3)CC2)c1C1CCN(C(=O)OC(C)(C)C)CC1`, the “% Inhibition” value is reported as -14% and the Z score is reported as 2.16.
`CC[C@H](NCC(=O)NC(C)C)c1cccc(Cl)c1` was tested, and the “% Inhibition” value was -7% and the Z score was 1.01.
In the case of `CC(C)(C)c1nc(CN2CC[C@H](c3ccccc3)C2)no1`, the “% Inhibition” value is reported as -6% and the Z score is reported as 0.78.
In the case of `c1cc2cn[nH]c2cc1CN1CCc2[nH]ncc2C1`, the “% Inhibition” value is reported as -2% and the Z score is reported as 0.3.
With `c1cc(-c2nc(C3CCCCC3)no2)cc(-c2ncc[nH]2)n1` the “% Inhibition” value was -28% and the Z score was 4.45.
With `O=C(Nc1cccc(F)c1)N(Cc1ccco1)C[C@H]1CCCO1` the “% Inhibition” value was -10% and the Z score was 1.55.
For `CCn1cnnc1CN(C)c1ncc(C)c(-c2ncnn2C)n1`, the “% Inhibition” value was 2% and the Z score was -0.34.
With `O=C(CCC1CCCCC1)N1CCN(C(=O)[C@@H]2CCCc3cccnc32)CC1` the “% Inhibition” value was 0% and the Z score was 0.
In the case of `CC(=Cc1cc(F)c(F)cc1F)c1cnccn1`, the “% Inhibition” value is reported as -3% and the Z score is reported as 0.35.
For `CC[C@H](NC(=O)c1sccc1Cl)C1CCOCC1`, the “% Inhibition” value was 0% and the Z score was -0.01.
With `CC(C)C1OCCCC1CNC(=O)Nc1ccc[n+]([O-])c1` (centres undefined) the “% Inhibition” value was -10% and the Z score was 1.72.
`CONC(=O)C1CC=CCC1c1nc2ccccc2s1` (centres undefined) was tested, and the “% Inhibition” value was 3% and the Z score was -0.54.
In the case of `CCc1cccc(NC(=O)CN2CCn3nnc(-c4nc(-c5ccsc5)no4)c3C2=O)c1`, the “% Inhibition” value is reported as -12% and the Z score is reported as 1.31.
In the case of `CC1CC1c1ccc(CNCc2ccncc2)o1` (centres undefined), the “% Inhibition” value is reported as 2% and the Z score is reported as -0.31.
With `CCC1(CC)CN(C(=O)CC2CCCCCC2)CCS1(=O)=O` the “% Inhibition” value was -6% and the Z score was 0.93.
For `O=C(c1ccc2nc(-c3ccc(F)cc3)cn2c1)N1CCCC[C@@H]1CCO`, the “% Inhibition” value was -20% and the Z score was 2.16.
With `Cc1ccnc(OCC(=O)Nc2ccccc2C)n1` the “% Inhibition” value was 9% and the Z score was -1.29.
With `CN1CCN(c2cnn(CCOc3ccccc3)c(=O)c2)CC1` the “% Inhibition” value was -12% and the Z score was 1.33.
With `Cn1ncc(COc2cccc(N3CCCC3)c2)c1C(F)(F)F` the “% Inhibition” value was -4% and the Z score was 0.39.
With `Cc1nc(C(=O)N(C)Cc2snnc2C)cs1` the “% Inhibition” value was -10% and the Z score was 1.83.
With `Cc1cccc(NC(=O)N2CCC(Cc3nccn3C)CC2)n1` the “% Inhibition” value was -6% and the Z score was 0.6.
With `Cc1cc(-c2cc(O)c3c(c2)CN(Cc2cnn(C)c2C)CCO3)nc2cc(F)ccc12` the “% Inhibition” value was -5% and the Z score was 0.62.
In the case of `Cc1nn(Cc2cn(C3CCC(C)C3)nn2)c(C)c1C` (centres undefined), the “% Inhibition” value is reported as -8% and the Z score is reported as 1.16.
`O=C(c1cccnc1)N1CCO[C@@H](Cn2cccn2)C1` was tested, and the “% Inhibition” value was -3% and the Z score was 0.5.
For `Cn1cc(C2CCCCN2CCOC2CCCCO2)cn1` (centres undefined), the “% Inhibition” value was 6% and the Z score was -0.81.
In the case of `O=C1OCCN1c1cccc(C2OCCCO2)c1`, the “% Inhibition” value is reported as -4% and the Z score is reported as 0.62.
`COc1ccc(CN2CCCN(Cc3ccc(OC)cc3)C2c2cc(Cl)cc(Cl)c2O)cc1` was tested, and the “% Inhibition” value was -7% and the Z score was 0.78.
`Cc1scc2nc(C3CCC3)nc(N3CCC(C(=O)NCc4ccccc4)CC3)c12` was tested, and the “% Inhibition” value was 7% and the Z score was -1.15.
For `CN1C[C@@H](C(=O)N2CCC(CNC(=O)C3CCC3)CC2)Oc2ccccc21`, the “% Inhibition” value was -17% and the Z score was 1.66.
For `N#Cc1ccc(CON=C(N)c2ccc(OCc3cccnc3)cc2)cc1`, the “% Inhibition” value was -3% and the Z score was 0.27.
`Cc1ccc(C(=O)NS(=O)(=O)[C@@H](C)C(F)(F)F)c(F)c1` was tested, and the “% Inhibition” value was 4% and the Z score was -0.71.
With `Cc1cnc(CC[C@H]2CCCN2C(=O)CCCc2ccccc2)n1C` the “% Inhibition” value was 34% and the Z score was -4.61.
With `O=C(CCCn1cncn1)N[C@H]1CN(C(=O)c2ccccc2F)C[C@@H]1C1CC1` the “% Inhibition” value was -2% and the Z score was 0.29.
For `CC(C)COc1ncc(C(=O)N2CCCC2CC(C)O)cc1Cl` (centres undefined), the “% Inhibition” value was -10% and the Z score was 1.22.
For `Cc1nn(Cc2ccccc2)c(C)c1[C@@H]1C=C[C@@H](NC(=O)c2ccc(F)c(Cl)c2)C1`, the “% Inhibition” value was -11% and the Z score was 1.68.
`CC[C@@](C)(CNC(=O)c1ccncc1F)NC(=O)c1ccncc1F` was tested, and the “% Inhibition” value was 1% and the Z score was -0.08.
With `Cc1ccn(Cc2nc(-c3ccco3)no2)c(=O)c1C#N` the “% Inhibition” value was 27% and the Z score was -3.66.
In the case of `Cn1cccc1C(=O)N1CC[C@H](Oc2cc(N3CCOCC3)ncn2)C1`, the “% Inhibition” value is reported as -6% and the Z score is reported as 0.71.
For `Cn1ccnc1C(=O)NCc1nc(Cc2cccs2)no1`, the “% Inhibition” value was -2% and the Z score was 0.39.
With `CCc1nc2cc(NC(C)=O)cc(C(=O)O)c2n1Cc1cccnc1` the “% Inhibition” value was -9% and the Z score was 1.61.
In the case of `CC(C)N(CCN(C)C)C(=O)Cn1ccc(C(F)(F)F)n1`, the “% Inhibition” value is reported as -16% and the Z score is reported as 3.11.
With `COc1ccc(-c2nc3cc(C)ccc3cc2CN2CCN(C)CC2)cc1OC` the “% Inhibition” value was 2% and the Z score was -0.28.
`c1ncnc(NC2(CN3CCCC3)CCCCC2)n1` was tested, and the “% Inhibition” value was -13% and the Z score was 2.57.
`Cc1nnc(NCCc2cnn(-c3ccccc3)c2)o1` was tested, and the “% Inhibition” value was -11% and the Z score was 2.18.
In the case of `CCn1cc(CN2CCN3C(=O)N(c4ccccc4)C(=O)[C@@H]3C2)cn1`, the “% Inhibition” value is reported as -2% and the Z score is reported as 0.24.
`CC(=O)N1CCN(c2nnc(-c3cccnc3)n2Cc2ccc(Cl)cc2)CC1` was tested, and the “% Inhibition” value was -12% and the Z score was 2.35.
For `O=C(CCC1CCCCC1)N[C@@]1(C(F)(F)F)NC(c2ccccc2)=NC1=O`, the “% Inhibition” value was -29% and the Z score was 3.36.
With `Cc1nn(-c2ccccc2)c(Oc2ccc(Cl)cc2)c1CN(C(=O)c1ccccc1F)C1CC1` the “% Inhibition” value was 25% and the Z score was -2.37.
In the case of `COC(=O)CC(C)(C)NS(=O)(=O)c1c(F)c(F)cc(F)c1F`, the “% Inhibition” value is reported as -3% and the Z score is reported as 0.54.
In the case of `NC(=O)c1cccc(CN2C3CCC2CC(O)C3)c1` (centres undefined), the “% Inhibition” value is reported as -9% and the Z score is reported as 0.89.
With `COc1ccccc1CN1CC(=O)N2CC[C@@H](O)C[C@H]2C1=O` the “% Inhibition” value was -6% and the Z score was 1.1.
With `O=C(CCC1CCN(C(=O)c2cnn[nH]2)CC1)N1CCCC1` the “% Inhibition” value was -8% and the Z score was 0.94.
In the case of `O=C(Nc1ccc2c(c1)OCCCO2)c1cc2c(s1)CCCC2`, the “% Inhibition” value is reported as -6% and the Z score is reported as 1.19.
In the case of `Cc1ccc(C(=O)Nc2ccc(OCc3ccccc3)cc2)s1`, the “% Inhibition” value is reported as -13% and the Z score is reported as 2.58.
`N#CCC(=O)N1CCC(Cc2nc3ccccc3[nH]2)CC1` was tested, and the “% Inhibition” value was -14% and the Z score was 2.29.
With `CC(NC(=O)CC(c1cccc(C(F)(F)F)c1)c1c[nH]c2ccccc12)c1ccccc1` (centres undefined) the “% Inhibition” value was 8% and the Z score was -0.75.
`CN(C)c1cccc(C(=O)N[C@H]2CCN(c3cc(-c4ccc(F)cc4)n[nH]3)C2)c1` was tested, and the “% Inhibition” value was -25% and the Z score was 2.47.
`COc1ccc2c(c1)CN(C(=O)c1csc(C3CC3)n1)CCO2` was tested, and the “% Inhibition” value was -11% and the Z score was 1.44.
With `O=c1cc(-c2ccccc2)[nH]n1-c1nc(-c2ccccc2)cc(-c2ccccc2O)n1` the “% Inhibition” value was -8% and the Z score was 1.58.
